Measurements reported in patent US20060122260A1, “Intermediates for aromatic polyketides as selective anticancer and antiviral agents” (priority 2002, published 2006).

Test system: Canine parvovirus type 2 (CPV-d)
Experiment: Parvovirus infectivity screening (animal virus model)
Settings: 5 nM to 500 nM
Experimental: The compounds were initially tested against parvovirus. The results for S2507 and S2502 were alike. […] The chart in FIG. 1 presents the results of S2507 compared to negative control and positive control (bafilomycin). […] CPV was pelleted with ultracentrifugation at 173 000 g for 1 h and resuspended in 0.9 ml of PBS, pH 7.4. The suspension was sonicated with low power and chloroform extracted. For infectivity screening studies cells grown on (diameter 13 mm) coverslips to 80% confluency were inoculated with CPV. The drug (1 μM or 500 nM, diluted to DMEM 2 coverslips/concentration) was added simultaneously with CPV and was present during the course of infection. Control samples were incubated without drug. 24 h post-infection (p.i.) the coverslips were dipped in phosphate-buffered saline (PBS), pH 7.4 and fixed with 4% paraformaldehyde in PBS. […] Samples were examined with a laser scanning fluorescence microscope (Zeiss, Axiovert 100M, LSM 510) using excitation/emission settings appropriate for the dye used. Infectivity was determined by counting the ratio of cells with fluorescent nuclei to total number of cells (stained with texasred-X-conjugated wheat germ agglutinin) (n=300) at 24 h p.i. by immunofluorescence with polyclonal antibody (Comell#2) to CPV.

CC(=O)/C=C1/C=C2OC(CC(=O)O)Cc3cc4cccc(O)c4c(c32)O1 (stereo not shown) [S2507]
effect on parvovirus over concentration range: the effect was found with all of these dilutions
